# Reference: the supplement of paper PMC12217912
# This is one part of the list. The full chains were built here from the parent and the listed change. Values near 0.05 are background.
# B1: TEV protease; numbered along this chain (parent)
# chain: MGESLFKGPRDYNPISSSICHLTNESDGHTTSLYGIGFGPFIITNKHLFRRNNGTLVVQSLHGVFKVKDTTTLQQHLVDGRDMIIIRMPKDFPPFPQKLKFREPQREERICLVTTNFQTKSMSSMVSDTSCTFPSGDGIFWKHWIQTKDGQCGSPLVSTRDGFIVGIHSASNFTNTNNYFTSVPKNFMELLTNQEAQQWVSGWRLNADSVLWGGHKVFMVKPEEPFQPVKEATQL
# Variants of: B1
# Assay: raw area under fraction-flipped curve 0-4 h after induction (AUC4h, not background-subtracted), DNA-recorder readout of cleavage of the substrate (dimensionless); higher = more cleavage of the substrate by the protease variant
# Details: temperature: 34 °C; time window: 0-4 h after rhamnose induction
# Method: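 In vivo DNA recorder in E. coli TOP10(DE3) ΔrhaA at 34 °C. Each TEVp single-site mutant (parent TEVp 0) is paired with a single-site variant of the 7-mer TEVs (canonical ENLYFQ|S). The substrate sits between flexible linkers in a Bxb1-sfGFP-TEVs-SsrA fusion, so cleavage stabilises Bxb1 and speeds flipping of a recombination array, read by NGS. The value is the raw area under the fraction-flipped curve over 0-4 h after rhamnose induction (AUC4h), with ≥20 reads per time point. It is not background-subtracted; inactive controls average about 0.047.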
# 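Also: Bxb1 expression induced with 0.2% (w/v) L-rhamnose at OD600 near 0.5, cultures sampled hourly, flipped fraction per protease–substrate barcode pair counted by paired-end Illumina sequencing.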
Variant,area with substrate ENLYFAS,area with substrate ENLYFCS,area with substrate ENLYFDS,area with substrate ENLYFES,area with substrate ENLYFFS,area with substrate ENLYFHS,area with substrate ENLYFIS,area with substrate ENLYFKS,area with substrate ENLYFMS,area with substrate ENLYFNS,area with substrate ENLYFPS,area with substrate ENLYFRS,area with substrate ENLYFSS,area with substrate ENLYFTS,area with substrate ENLYFVS,area with substrate ENLYFYS,area with substrate ENLYFWS,area with substrate ENLYFGS,area with substrate ENLYFLS
MGESLFKGPRDYNPISSSICHLTNESDGHTTSLYGIGFGPFIITNKHLFRRNNGTLVVQSLHGVFKVKDTTTLQQHLVDGRDMIIIRMPKDFPPFPQKLKFREPQREERICLVTTNFQTKSMSSMVSDTSCTFPSGDGIFWKHWIQTKDGQCGSPLVSTRDGFIVGIHSASNFTKTNNYFTSVPKNFMELLTNQEAQQWVSGWRLNADSVLWGGHKVFMVKPEEPFQPVKEATQL [N175K],0.0564,0.0788,0.0674,0.0653,0.0722,0.0278,0.0518,0.0753,0.0639,0.0686,0.0576,0.0601,0.0535,0.0655,0.0645,0.0641,–,–,–
MGESLFKGPRDYNPISSSICHLTNESDGHTTSLYGIGFGPFIITNKHLFRRNNGTLVVQSLHGVFKVKDTTTLQQHLVDGRDMIIIRMPKDFPPFPQKLKFREPQREERICLVTTNFQTKSMSSMVSDTSCTFPSGDGIFWKHWIQTKDGQCGSPLVSTRDGFIVGIHSASNFTNCNNYFTSVPKNFMELLTNQEAQQWVSGWRLNADSVLWGGHKVFMVKPEEPFQPVKEATQL [T176C],0.0594,0.0536,0.053,0.0599,0.0772,0.0586,–,–,–,–,0.0749,0.0564,0.0606,0.0693,–,0.0504,0.0535,–,–
MGESLFKGPRDYNPISSSICHLTNESDGHTTSLYGIGFGPFIITNKHLFRRNNGTLVVQSLHGVFKVKDTTTLQQHLVDGRDMIIIRMPKDFPPFPQKLKFREPQREERICLVTTNFQTKSMSSMVSDTSCTFPSGDGIFWKHWIQTKDGQCGSPLVSTRDGFIVGIHSASNFTNFNNYFTSVPKNFMELLTNQEAQQWVSGWRLNADSVLWGGHKVFMVKPEEPFQPVKEATQL [T176F],0.0651,–,0.0511,0.062,0.061,–,0.0453,–,0.0492,–,–,–,–,–,0.0691,–,–,–,–
MGESLFKGPRDYNPISSSICHLTNESDGHTTSLYGIGFGPFIITNKHLFRRNNGTLVVQSLHGVFKVKDTTTLQQHLVDGRDMIIIRMPKDFPPFPQKLKFREPQREERICLVTTNFQTKSMSSMVSDTSCTFPSGDGIFWKHWIQTKDGQCGSPLVSTRDGFIVGIHSASNFTNINNYFTSVPKNFMELLTNQEAQQWVSGWRLNADSVLWGGHKVFMVKPEEPFQPVKEATQL [T176I],0.0593,0.0501,–,0.067,0.0571,0.0607,0.0657,0.0404,0.0579,0.067,0.049,0.0533,0.0582,0.0652,0.0555,–,–,0.052,0.0683
MGESLFKGPRDYNPISSSICHLTNESDGHTTSLYGIGFGPFIITNKHLFRRNNGTLVVQSLHGVFKVKDTTTLQQHLVDGRDMIIIRMPKDFPPFPQKLKFREPQREERICLVTTNFQTKSMSSMVSDTSCTFPSGDGIFWKHWIQTKDGQCGSPLVSTRDGFIVGIHSASNFTNMNNYFTSVPKNFMELLTNQEAQQWVSGWRLNADSVLWGGHKVFMVKPEEPFQPVKEATQL [T176M],0.0678,0.0579,–,0.0431,0.0683,0.0467,0.0525,0.0493,0.0586,0.0671,–,–,0.085,0.0661,0.047,0.0496,0.053,–,–
MGESLFKGPRDYNPISSSICHLTNESDGHTTSLYGIGFGPFIITNKHLFRRNNGTLVVQSLHGVFKVKDTTTLQQHLVDGRDMIIIRMPKDFPPFPQKLKFREPQREERICLVTTNFQTKSMSSMVSDTSCTFPSGDGIFWKHWIQTKDGQCGSPLVSTRDGFIVGIHSASNFTNNNNYFTSVPKNFMELLTNQEAQQWVSGWRLNADSVLWGGHKVFMVKPEEPFQPVKEATQL [T176N],0.0681,–,0.0625,–,–,0.0595,0.0499,–,0.0598,0.0554,0.0588,0.0518,0.0595,0.0596,–,–,0.0548,0.0653,–
MGESLFKGPRDYNPISSSICHLTNESDGHTTSLYGIGFGPFIITNKHLFRRNNGTLVVQSLHGVFKVKDTTTLQQHLVDGRDMIIIRMPKDFPPFPQKLKFREPQREERICLVTTNFQTKSMSSMVSDTSCTFPSGDGIFWKHWIQTKDGQCGSPLVSTRDGFIVGIHSASNFTNSNNYFTSVPKNFMELLTNQEAQQWVSGWRLNADSVLWGGHKVFMVKPEEPFQPVKEATQL [T176S],0.0609,0.0658,0.0554,0.0547,0.0791,0.064,0.0582,–,0.0648,–,0.063,0.0636,0.0315,0.0575,–,–,0.0619,0.0583,–
MGESLFKGPRDYNPISSSICHLTNESDGHTTSLYGIGFGPFIITNKHLFRRNNGTLVVQSLHGVFKVKDTTTLQQHLVDGRDMIIIRMPKDFPPFPQKLKFREPQREERICLVTTNFQTKSMSSMVSDTSCTFPSGDGIFWKHWIQTKDGQCGSPLVSTRDGFIVGIHSASNFTNTENYFTSVPKNFMELLTNQEAQQWVSGWRLNADSVLWGGHKVFMVKPEEPFQPVKEATQL [N177E],0.0574,0.0567,0.0693,0.0668,0.0637,0.0566,0.0583,0.0627,0.0499,0.0609,0.06,0.0587,0.0602,–,0.0765,0.0554,0.0586,–,–
MGESLFKGPRDYNPISSSICHLTNESDGHTTSLYGIGFGPFIITNKHLFRRNNGTLVVQSLHGVFKVKDTTTLQQHLVDGRDMIIIRMPKDFPPFPQKLKFREPQREERICLVTTNFQTKSMSSMVSDTSCTFPSGDGIFWKHWIQTKDGQCGSPLVSTRDGFIVGIHSASNFTNTNNYFTSVGKNFMELLTNQEAQQWVSGWRLNADSVLWGGHKVFMVKPEEPFQPVKEATQL [P184G],0.0491,–,0.0587,0.056,0.0709,–,0.0556,0.0526,0.0596,–,0.0567,–,0.0949,0.0545,0.0475,0.0929,–,0.0597,0.0672
